# From PubChem BioAssay AID2060340 (Molecular Pharmacology Branch, DTP, NCI, 2025)
# For part of its entries the source gives two or more results. This list holds those alone. There may be further records. The values listed for one entry repeat one measurement across runs, samples, wells, individuals or studies.
# System: 349418-098-R-PDC spheroids, viability, % test/control
# Assay: Anticancer human tumor 349418-098-R-PDC patient-derived lung adenocarcinoma cell line growth inhibition [IpAb]
# Conditions: spheroids with HUVEC and MSC; for IC50: compound alone
# Text: Combinatorial screen of targeted agents with ipatasertib and abemaciclib in multi-cell type tumor spheroids
# A high-throughput screen of multi-cell type tumor spheroids was designed to identify active combinations of targeted small molecules and ipatasertib or abemaciclib. Complex spheroids include a stromal component modeled by human endothelial cells (HUVEC) and fibroblasts modeled by human mesenchymal stem cells (MSCs). The concentration ranges selected for each drug and investigational agent were based upon clinically achievable concentrations if the clinical Cmax of the agent was known.
# Compounds. The drugs and investigational agents: ipatasertib (NSC767898), abemaciclib(NSC768073), selumetinib (NSC741078), trametinib (758246), adavosertib (NSC754352), everolimus (NSC733504), sapanisertib (NSC764658), vemurafenib (NSC761431), venetoclax (NSC766270), copanlisib (NSC809693), apelisib (NSC765974), palbociblib (NSC758247), vemurafenib (NSC761431), dabrafenib (NSC764134), ravoxertinib (NSC781343), BMS-387032 (NSC767048), sotorasib (NSC818433), talazoparib (NSC767125) and afursertib (NSC778305), were obtained from the National Cancer Institute (NCI) Developmental Therapeutics Program Chemical Repository. The FDA-approved anticancer drug set is available from the NCI Developmental Therapeutics Program. […] The stock solutions were prepared in dimethyl sulfoxide (DMSO, Sigma-Aldrich, St. Louis, MO, cat. D2650) at 800-fold the tested concentration and stored at -70 degrees C prior to their use. All drugs and investigational agents were tested over a range starting from a high concentration at or near the clinical Cmax and decreasing in half-log increments. If the clinical Cmax for an agent had not been determined, the highest concentration tested was 10 microM.
# NCI60 Cell Culture. NCI60 cell lines were obtained from the NCI Developmental Therapeutics Program Tumor Repository. […] The optimal seeding densities for each of the cell lines at each time point assessed were determined prior to performing the concentration response studies. […]
# 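Note: spheroids exposed to compounds for 7 days.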
SMILES,IC50,"viability, T/C (compound alone 0.316 µM, stronger effect = lower value)"
Cn1cnc2c(F)c(Nc3ccc(Br)cc3Cl)c(C(=O)NOCCO)cc21,363 nM and < 9.49 nM,–
CC(C)NCC(C(=O)N1CCN(c2ncnc3c2C(C)CC3O)CC1)c1ccc(Cl)cc1 (stereo not drawn),–,"55.9, 67.2, 51.8, 42, 57.6, 57.2, 62.4, 41.9, 62.5, 46.9, 52.5, 51.7, 52%"
Cn1nccc1Nc1nccc(-c2ccn(C(CO)c3ccc(Cl)c(F)c3)c(=O)c2)n1 (stereo not drawn),< 31.6 nM and 410 nM,–
